# Measured values published in PubChem BioAssay (Tox21).
# Several values for one entry are separate records, joined by “and”; a condition that tells them apart may be missing. Identical values can stand only once. The shares of active, inactive and inconclusive entries below differ from those in the screen. Potencies beside an inconclusive call are fits to weak or partial responses and may not hold up. Some structures have more than one record in an assay (separate samples or runs), and their calls can disagree. Activity calls are given as the source filed them. Unless noted, the call rests on the fitted dose curve; in most records, active means well fitted curve in the direction sought with a large enough effect in the repeat runs; inconclusive means weak or mixed curves; inactive means no such curve, though single readings can be large; an effect the other way counts as inactive or inconclusive.
# What was measured:
# [1] = qHTS assay to identify small molecule agonists of the estrogen receptor beta (ER-beta) signaling pathway - cell viability counter screen (AID 1259380); further: nearly all actives have a fitted effect of over 30% in size
# Procedure, shortened: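 In this qHTS counter screen, HEK293T cells carrying an ER-beta/UAS beta-lactamase reporter, grown in 2% charcoal-stripped FBS, received compound for 16 hr; ATP-based CellTiter-Glo luminescence was then read after 30 min at room temperature.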
# [2] = qHTS assay to identify small molecule agonists of the progesterone receptor (PR) signaling pathway - cell viability counter screen (AID 1346799; calls by dose curve; further: nearly all actives have a fitted effect of over 45% in size)
# Procedure, shortened: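 PR-UAS-bla HEK293T cells, 3,000 per well in medium with 2% charcoal-stripped FBS, were preincubated 6 hr at 37C, then exposed to compounds for 16 hr; viability was read as CellTiter-Glo luminescence after 30 min at room temperature.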
# [3] = qHTS assay to identify small molecule antagonists of the estrogen receptor beta (ER-beta) signaling pathway - cell viability counter screen (AID 1259382); further: nearly all actives have a fitted effect of over 55% in size
# Procedure, shortened: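 HEK293T ER-beta-UAS-bla, 2% charcoal-stripped FBS; compounds + 1nM E2 16 hr 37C; CellTiter-Glo luminescence, 30 min RT.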
# [4] = biological target: Progesterone receptor (Homo sapiens) (UniProt P06401); test: qHTS assay to identify small molecule agonists of the progesterone receptor (PR) signaling pathway (AID 1346784; calls by dose curve; further: nearly all actives have a fitted effect of over 30% in size; on activation: on the % scale 0 is the no-effect control and ±100 the full control effect); conditions: PR-UAS-bla HEK293T, beta-lactamase FRET ratio, 16 h; activation: at 92.4 µM (top of the series) unless noted
# Procedure, shortened: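 PR-UAS-bla HEK 293T cells carrying a UAS-driven beta-lactamase reporter were seeded in medium with 2% charcoal-stripped FBS, preincubated 6 hr at 37C, then exposed to compounds in DMSO for 16 hr; agonism was read by LiveBLAzer B/G FRET fluorescence.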
# [5] = biological target: Progesterone receptor (Homo sapiens) (UniProt P06401); test: qHTS assay to identify small molecule antagonists of the progesterone receptor (PR) signaling pathway (AID 1346795; active means well fitted inhibition curve with a large enough effect in the signal ratio in the repeat runs, not every such curve was filed as active; inconclusive means weak or mixed curves; the % refers to the signal ratio; on activity change, negative = inhibition: on the % scale 0 is the no-effect control and ±100 the full control effect); conditions: PR-UAS-bla HEK293T, beta-lactamase FRET ratio, 16 h; activity change, negative = inhibition: at 92.4 µM (top of the series) unless noted
# Procedure, shortened: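 PR-UAS-bla HEK293T cells carrying a UAS-driven beta-lactamase reporter were plated in medium with 2% charcoal-stripped FBS and rested 6 hr at 37C. Compounds were added with 1 nM R5020 (final) for 16 hr, then FRET substrate loaded 2 hr at room temperature.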
# [6] = qHTS assay to identify small molecule antagonists of the progesterone receptor (PR) signaling pathway - cell viability counter screen (AID 1346798); further: nearly all actives have a fitted effect of over 50% in size
# Procedure, shortened: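 PR-UAS-bla HEK293T cells in medium with 2% charcoal-stripped FBS were treated with compounds plus R5020 for 16 hr at 37C. Cell viability was then read by CellTiter-Glo luminescence after 30 min at room temperature in the same wells.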
# [7] = qHTS assay to identify small molecule antagonists of the TGF-beta/Smad signaling pathway - cell viability counter screen (AID 1346824); further: nearly all actives have a fitted effect of over 50% in size
# Procedure, shortened: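 Cytotoxicity counter-screen run in the same wells as the beta-lactamase Smad reporter read: CellTiter-Glo luminescence after 30 min at room temperature. HEK 293T SBE-bla cells had 5 hr compound exposure at 37 C with TGF-beta1 (0.25 ng/mL stock).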
# [8] = qHTS assay to identify small molecule agonists of the TGF-beta/Smad signaling pathway (AID 1346859; active means well fitted activation curve with a large enough effect in the signal ratio in the repeat runs, not every such curve was filed as active; inconclusive means weak or mixed curves; the % refers to the signal ratio); conditions: SBE-bla HEK293T, TGF-beta/Smad beta-lactamase reporter, 5 h; activation: at 76.8 µM (top of the series)
# Procedure, shortened: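 HEK 293T cells stably carrying a beta-lactamase reporter driven by the Smad binding element were seeded overnight, exposed to DMSO-dissolved compounds for 5 hr at 37 C, 5% CO2, then loaded with FRET substrate for 2 hr at room temperature.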
# [9] = qHTS assay to identify small molecule antagonists of the TGF-beta/Smad signaling pathway (AID 1346924; active means well fitted inhibition curve with a large enough effect in the signal ratio in the repeat runs, not every such curve was filed as active; inconclusive means weak or mixed curves; the % refers to the signal ratio); conditions: SBE-bla HEK293T, TGF-beta/Smad reporter, beta-lactamase ratio; activity, negative = inhibition: at 76.8 µM (top of the series) unless noted
# Procedure, shortened: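 Read-out was FRET-substrate fluorescence (405 nm excitation; 460 and 530 nm emission) after 2 h at room temperature. Before that, cells carrying a Smad-binding-element beta-lactamase reporter in HEK 293T had been stimulated 5 h at 37 C with TGF-beta1 (0.25 ng/mL addition solution) in the presence of test compound.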
# [10] = Human pregnane X receptor (PXR) small molecule agonists, qHTS cell viability counter screen (AID 1346977); further: nearly all actives have a fitted effect of over 50% in size
# Procedure, shortened: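 PXR-Luc HepG2 cells in medium with 5% charcoal-stripped FBS were pre-incubated 5hr, then exposed to compounds for 24hr at 37C. Viability was read in the same wells by CellTiter-Fluor fluorescence, reagent added after 23hr with a 1hr incubation.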
# [11] = Caspase-3/7 induction in CHO-K1 cells by small molecules, qHTS cell viability counter screen (AID 1346979); further: nearly all actives have a fitted effect of over 35% in size
# Procedure, shortened: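 Wild-type CHO-K1 cells were seeded at 1,500 per well, rested 5hr at 37 C, then exposed to compounds in DMSO. After 16hr, CellTiter-Fluor reagent was added and fluorescence read 1hr later as the viability measure.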
# [12] = qHTS assay to identify small molecule agonists of the TGF-beta/Smad signaling pathway - cell viability counter screen (AID 1346829); further: nearly all actives have a fitted effect of over 45% in size
# Procedure, shortened: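 CellTiter-Glo luminescence readout; SBE-bla HEK 293T cells, overnight plating, compound 5 hr at 37 C/5% CO2, then bla substrate 2 hr RT, then CellTiter-Glo 30 min RT.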
# [13] = qHTS assay to identify small molecule agonists of the estrogen receptor alpha (ER-alpha) signaling pathway in the presence of an antagonist - cell viability counter screen (AID 1259386);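 further: cells exposed to compounds for 22 h at 37 °C before the viability read; nearly all actives have a fitted effect of over 30% in size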
# Procedure, shortened: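 Steps: 5-day stripped-FBS culture; seed and incubate 24hr; add ICI-182,780 (10.0nM final); pin 15-point compound titration; incubate 22hr at 37C; add CellTiter-Fluor at 21hr; read fluorescence.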
# [14] = Caspase-3/7 induction in HepG2 cells by small molecules, qHTS assay (AID 1346978); further: nearly all actives have a fitted effect of over 15% in size
# Procedure, shortened: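 Caspase-3/7 induction was measured by Caspase-Glo 3/7 luminescence (30 min, room temperature) after a 17 hr compound exposure of wild-type HepG2 cells seeded at 2,000 per well and pre-incubated 5 hr.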
# [15] = Caspase-3/7 induction in CHO-K1 cells by small molecules, qHTS assay (AID 1346980); further: nearly all actives have a fitted effect of over 15% in size
# Procedure, shortened: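 Luminescent Caspase-Glo 3/7 read (30min, room temperature) quantified apoptosis induction. Cells were wild-type CHO-K1, treated with compound for 17hr at 37 C and 5% CO2.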
# [16] = biological target: Thyrotropin-releasing hormone receptor (Homo sapiens) (UniProt P34981); test: qHTS assay to identify small molecule antagonists of the thyrotropin-releasing hormone receptor (TRHR) signaling pathway (AID 1346877; active means well fitted inhibition curve with a large enough effect in the repeat runs, not every such curve was filed as active; inconclusive means weak or mixed curves)
# Procedure, shortened: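 Human TRHR in HEK293 cells; inhibition of the intracellular calcium rise triggered by 1 nM TRH was followed by fluorescence over 3 min. Compounds were run at 15 concentrations, three replicates each.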
# Potency means the concentration at half of the fitted maximal effect; tags describe the fitted curve by direction and shape or compound fluorescence and quenching.
# Sequence of UniProt P06401 (P06401 whole entry, looked up): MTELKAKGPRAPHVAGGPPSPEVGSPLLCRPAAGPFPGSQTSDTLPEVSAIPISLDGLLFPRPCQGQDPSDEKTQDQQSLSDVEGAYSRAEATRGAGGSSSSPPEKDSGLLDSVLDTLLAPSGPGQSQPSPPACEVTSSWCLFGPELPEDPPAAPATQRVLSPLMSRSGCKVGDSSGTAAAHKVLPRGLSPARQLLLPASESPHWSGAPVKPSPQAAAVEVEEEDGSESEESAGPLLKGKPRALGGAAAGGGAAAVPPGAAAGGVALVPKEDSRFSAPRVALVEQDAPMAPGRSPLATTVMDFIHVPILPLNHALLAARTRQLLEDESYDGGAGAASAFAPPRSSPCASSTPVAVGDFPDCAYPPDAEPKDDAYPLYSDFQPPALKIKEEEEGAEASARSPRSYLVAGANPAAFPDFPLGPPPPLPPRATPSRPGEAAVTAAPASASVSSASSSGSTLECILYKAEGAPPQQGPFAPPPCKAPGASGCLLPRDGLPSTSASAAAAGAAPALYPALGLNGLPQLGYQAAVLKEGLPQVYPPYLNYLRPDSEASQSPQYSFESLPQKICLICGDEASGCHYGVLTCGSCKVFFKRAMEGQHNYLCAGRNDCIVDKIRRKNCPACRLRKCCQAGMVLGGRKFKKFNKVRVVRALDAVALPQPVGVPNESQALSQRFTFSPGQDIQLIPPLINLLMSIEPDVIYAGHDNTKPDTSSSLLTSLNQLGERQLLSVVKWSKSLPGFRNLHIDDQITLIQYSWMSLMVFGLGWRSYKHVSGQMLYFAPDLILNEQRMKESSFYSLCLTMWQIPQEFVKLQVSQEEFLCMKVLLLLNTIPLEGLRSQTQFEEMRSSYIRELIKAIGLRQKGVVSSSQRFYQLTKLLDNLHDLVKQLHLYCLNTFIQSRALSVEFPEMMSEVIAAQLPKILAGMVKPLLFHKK
# Sequence of UniProt P34981 (P34981 whole entry, looked up): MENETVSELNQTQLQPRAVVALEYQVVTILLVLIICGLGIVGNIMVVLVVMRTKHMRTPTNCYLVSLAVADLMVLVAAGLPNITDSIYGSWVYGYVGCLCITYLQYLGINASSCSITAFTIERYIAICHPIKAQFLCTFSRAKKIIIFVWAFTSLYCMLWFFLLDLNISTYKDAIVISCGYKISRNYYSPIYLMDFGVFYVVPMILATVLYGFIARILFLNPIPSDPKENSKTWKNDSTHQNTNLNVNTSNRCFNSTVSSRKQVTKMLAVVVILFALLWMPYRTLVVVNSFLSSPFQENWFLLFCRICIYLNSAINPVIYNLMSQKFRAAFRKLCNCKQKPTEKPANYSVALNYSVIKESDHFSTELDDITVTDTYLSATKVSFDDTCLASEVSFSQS
structure (smiles),measurement,setting,value
Cc1ccccc1[N+](=O)[O-],Potency,[1],"inconclusive: 27.3 µM [rising, single point]"
same,Potency,[2],"inconclusive: 0.0344 µM [rising, full curve, poor fit]"
N#CC(C#N)=NNc1cccc(Cl)c1,Potency,[3],"inconclusive: 77 µM [cytotoxic, partial curve, poor fit]"
same,activation,[4],inconclusive: -28.3%
same,Potency,[5],active: 13.7 µM
same,Potency,[6],"inconclusive: 43.3 µM [cytotoxic, partial curve, poor fit]"
same,Potency,[2],"inconclusive: 48.6 µM [cytotoxic, partial curve, poor fit]"
same,Potency,[7],"inconclusive: 4.36 µM [cytotoxic, full curve]"
same,Potency,[8],"inconclusive: 11 µM [rising, full curve]"
same,Potency,[9],"inconclusive: 6.16 µM [rising, full curve]"
same,Potency,[10],active: 3.86 µM
same,Potency,[11],active: 3.86 µM
CCCCCCCCCCn1cc[n+](C)c1,Potency,[3],"inconclusive: 38.5 µM [cytotoxic, partial curve]"
same,Potency,[4],inactive
same,"activity change, negative = inhibition",[5],inconclusive: -46.3% and inconclusive: -62.8%
same,Potency,[7],"inconclusive: 0.694 µM [cytotoxic, partial curve, poor fit]"
same,Potency,[12],"inconclusive: 11 µM [cytotoxic, single point] and inconclusive: 24.5 µM [cytotoxic, partial curve, poor fit]"
same,Potency,[8],"inconclusive: 19.7 µM [rising, single point] and inconclusive: 54.9 µM [rising, single point]"
same,Potency,[9],"inconclusive: 49.2 µM [rising, single point]"
same,"activity, negative = inhibition",[9],inconclusive: -23.4% [middle of 5 runs]
C=CC1(C)OC(=O)N(c2cc(Cl)cc(Cl)c2)C1=O (centres undefined),Potency,[3],active: 54.2 µM
same,Potency,[5],active: 21.6 µM and inconclusive: 24.3 µM
same,Potency,[2],active: 54.2 µM
same,Potency,[10],"inconclusive: 70.8 µM [cytotoxic, single point]"
same,Potency,[11],"inconclusive: 68.2 µM [cytotoxic, single point]"
CCC[CH2][Sn]([CH2]CCC)([CH2]CCC)[CH2]CCC,Potency,[3],active: 43.3 µM
same,Potency,[13],active: 17.2 µM
same,activation,[4],inconclusive: -14.8%
same,Potency,[5],active: 24.3 µM
same,Potency,[6],active: 43.3 µM
same,Potency,[2],"inconclusive: 48.6 µM [cytotoxic, partial curve, poor fit]"
same,Potency,[7],active: 38.9 µM
same,Potency,[12],active: 38.9 µM
same,Potency,[8],inconclusive: 24.5 µM [partial curve]
same,Potency,[9],"inconclusive: 27.5 µM [rising, partial curve]"
same,Potency,[14],active: 68.6 µM
same,Potency,[11],active: 9.69 µM
same,Potency,[15],active: 17.2 µM
ClC1=C(Cl)C2(Cl)C3C(Cl)C(Cl)CC3C1(Cl)C2(Cl)Cl (centres undefined),Potency,[3],"inconclusive: 68.4 µM [cytotoxic, single point]"
same,Potency,[13],"inconclusive: 76.7 µM [cytotoxic, single point] and inconclusive: 68.6 µM [cytotoxic, single point]"
same,Potency,[4],inconclusive: 68.4 µM [cytotoxic]
same,Potency,[5],active: 4.31 µM and active: 21.7 µM
same,Potency,[6],"inconclusive: 68.4 µM [cytotoxic, single point]"
same,Potency,[2],active: 48.4 µM and active: 61.1 µM
same,Potency,[12],"active: 48.8 µM and inconclusive: 54.9 µM [cytotoxic, single point]"
same,Potency,[8],inconclusive: 61.5 µM
same,"activity, negative = inhibition",[9],inconclusive: -22.4% and inconclusive: -25.1%
same,Potency,[10],"inconclusive: 68.4 µM [cytotoxic, single point] and inconclusive: 68.6 µM [cytotoxic, single point]"
same,Potency,[14],"inconclusive: 76.7 µM [activator, single point] and inconclusive: 68.6 µM [activator, single point]"
same,Potency,[11],"active: 60.9 µM and inconclusive: 68.6 µM [cytotoxic, single point]"
same,Potency,[15],"inconclusive: 68.6 µM [activator, single point]"
CS(=O)(=O)c1ccc(C(=O)C2C(=O)CCCC2=O)c([N+](=O)[O-])c1,Potency,[3],"inconclusive: 44 µM [cytotoxic, partial curve, poor fit]"
same,Potency,[13],"inconclusive: 69.8 µM [cytotoxic, single point]"
same,Potency,[4],"inconclusive: 24.8 µM [rising, full curve]"
same,Potency,[5],inconclusive: 49.4 µM
same,Potency,[2],"inconclusive: 49.4 µM [cytotoxic, partial curve, poor fit]"
same,Potency,[8],inconclusive: 55.9 µM
same,Potency,[16],"inconclusive: 4.86 µM [inhibitor, full curve]"
same,Potency,[11],"inconclusive: 62.2 µM [cytotoxic, partial curve]"
